In the series the test system is ATP. Kind of series: switch fluorescence ratio, 500 uM ATP over buffer (Cy3 cluster intensity, sum of 5 cycles each) (fold (ratio)); higher = stronger signal-on switching upon ATP binding; sequences stand for … in TCGTCGGCAGCGTCAGATGTGTATAAGAGACAGTTTTTTTTTTTTTTTTTTTTTTTTT…TC. The settings on record: aptamer strand: ATP DNA aptamer (quencher-CACCTGGGGGAGTATTGCGGAGGAAGG + anchor), 100 nM annealed; ATP concentration: 500 uM; one replicate. The gist of the method: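 Between each of five buffer/ATP cycles, the flow-cell was stripped with NaOH and re-annealed. Each cycle imaged Cy3-labelled switching-strand clusters, annealed to 100 nM quencher-labelled ATP aptamer on a modified Illumina MiSeq flow-cell, first in selection buffer and then after 15 min with 500 uM ATP at 22 °C. The fluorescence ratio is summed target-cycle over summed buffer-cycle Cy3 intensity per cluster, averaged per switch-domain sequence, with clusters outside 100-1000 RFU excluded.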

Sequences with one replicate were seen in a single cluster, so their values are uncertain.
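Further: ATP exposure 15 min at 22 °C before imaging.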

As for TTCTAGATTT, the switch fluorescence ratio was determined as 0.982. Next, TTAAGGAAAG: 1.29; GCGTGACGGT: 0.977; GCAAAAGGTG: 1.02.

On to TTTCTGCAGG, for which the switch fluorescence ratio turned out to be 1.1.

As to AGTACGAACT, the switch fluorescence ratio was 1.37. As for GTATTAAGGT, the figure is 1.01. As for TAGCCGCTGC, the figure is 1.14; as for TTGTCGAGGG, 0.945. As for AGGATTTAGC, the figure is 0.972. With GATCTGCAGT, the switch fluorescence ratio came to 1.11. Regarding TACCTGCTCT, the switch fluorescence ratio was found to be 1.05. Next, GCACTCGTTC: 1.03; CCCATGAGCT: 1.01. Next, CAAACGAATG: 1. Next, TTGCGTAGTA: 0.998; CTAAGAATCG: 1.11; ATAAATGAGA: 1.03.

For TATTTTATCT, the switch fluorescence ratio was found to be 0.98. Consider GCTGGCGACA, for which the switch fluorescence ratio turned out to be 1.02. With ATCGCCGGTG, the switch fluorescence ratio turned out to be 0.984. For the sequence ATCGGCGTTC, the switch fluorescence ratio was 0.985. As for AGGCGATAT, the figure is 1.18; as for ATCACGTAT, 1.14; as for GAGGTCTTGA, 0.965. For the sequence CTGGCGCGCC, the switch fluorescence ratio was 1.05. As for CAAGGAAATA, the figure is 0.952. Regarding TCATTTTCCA, the switch fluorescence ratio worked out at 1.05.

As to TGACCTGGAC, the switch fluorescence ratio was found to be 1.17. Next, TGGGTGGCCA: 1.03; TACTCGTCA: 1.03. With AACGTAACGG, the switch fluorescence ratio is 1.25. As to GACATTGGCG, the switch fluorescence ratio was 1.01. With CTAAGTGCGG, the switch fluorescence ratio was 0.995. As for AATTTCTTC, the figure is 1.02. Next, TCGAGGCCAA: 2.16; GAACGGGTTC: 1.01. Regarding GTCATACCCA, the switch fluorescence ratio worked out at 1.

On to TTCGGGTACA, for which the switch fluorescence ratio worked out at 1.03. Next, TCCGTTGGCG: 0.965; CGGGCAGATT: 1.03. As to TCACTGCGAT, the switch fluorescence ratio came to 1.91. Next, CCAGCTCAT: 1.04; CAACTCAAT: 1.12; TGTTATTTTA: 1. For the sequence TTCCAGCCTG, the switch fluorescence ratio came to 0.986.

For the sequence CATATTAAAA, the switch fluorescence ratio came out at 0.992. Next, GTAGGACCTG: 0.94; GCCTGAAAGT: 0.971. With ACTCTAGAAA, the switch fluorescence ratio is 1.06. Next, AGCACGCTAC: 2.31; AGGCTGTAAA: 1.

On to ATTCAGAGCG, for which the switch fluorescence ratio worked out at 1.05. As to GTTACAATAA, the switch fluorescence ratio came to 0.971.

For TGAGGATGCC, the switch fluorescence ratio stood at 1.06.

GTACCGGCG: the switch fluorescence ratio was found to be 0.978. As for CGGTAAG, the figure is 1.05; as for GGGCAGTAAT, 1.02. For the sequence AACGGGGTAT, the switch fluorescence ratio worked out at 1.06. As for TTGCCGATGC, the figure is 1.03; as for GAATTCACGT, 1.03. As to AATTAGGGG, the switch fluorescence ratio is 1.02. Next, GGGCGGCCCA: 1.18. As to AGAAGCATGG, the switch fluorescence ratio came out at 0.983. Next, CGCGACATTA: 0.978; ACGGAAGG: 1.05; GCGGGGAGGC: 1.

TGAAGACGAA: the switch fluorescence ratio is 1.02.

On to TTCAGATAGT, for which the switch fluorescence ratio amounted to 0.994. Turning to TATAGTGCGC, the switch fluorescence ratio is 0.961. As to TCGGGGAGAC, the switch fluorescence ratio is 1.08.

On to GGCAGGCCTA, for which the switch fluorescence ratio is 1.06. As for TACGGAGTGA, the switch fluorescence ratio was 1.11.

Regarding TCCGGCCTTG, the switch fluorescence ratio was 1.03. Regarding TATTTCGCAA, the switch fluorescence ratio was 5.18.

Take CCAGTCCTGC: the switch fluorescence ratio came to 1.02. As to TCCTTTGGGT, the switch fluorescence ratio worked out at 1.06. Next, GCATCAGGGT: 1.01. As for TCATGATTGG, the figure is 0.982; as for CTTGGATTGC, 1. As for CTAAAAGAAT, the figure is 0.956. Consider GATTCCGTAA, for which the switch fluorescence ratio turned out to be 1.37. As for TTTCATGGTT, the figure is 1.01; as for TGTGGTTACT, 0.986.

As to CTTGCTGGAG, the switch fluorescence ratio amounted to 1.06.

For ATGAGTCCCG, the switch fluorescence ratio was 1.03. Next, GGCACTGATC: 1.07.

For the sequence CGCGTATGCA, the switch fluorescence ratio was 0.974. Next, GCGAAGGGAA: 0.999; ATATACGACA: 1.3; TTAGAATGAT: 1.01. As for AAGCCTATGA, the figure is 0.96; as for TAGAAGGGT, 0.966; as for TTAGCAA, 2.14. As for CTGGAAGTAA, the figure is 1.11; as for GAATGCTATA, 1.08; as for GTGGAAATCG, 0.973. For TGTTCATCTG, the switch fluorescence ratio came to 1.01. With GCCCTATCCG, the switch fluorescence ratio stood at 0.996. Next, TCTTGTGGGA: 1; GGGCTTAGTA: 0.971; ACCTCAAGCT: 1.15. Next, TGGGCCGTCG: 1.11; ACCGACGAGT: 1.52; GATGTGTATT: 0.995. Take TAAGTGCATT: the switch fluorescence ratio turned out to be 0.961. Turning to GCTCTTTGTT, the switch fluorescence ratio is 1.04. On to ATTTGAATAT, for which the switch fluorescence ratio worked out at 1.01. As for CATTCTAGGT, the figure is 0.993.

Turning to TCGTATCTTA, the switch fluorescence ratio came out at 1.01. As for GCGACGAGTG, the switch fluorescence ratio worked out at 0.978. With TTCCTTTTCG, the switch fluorescence ratio is 1. As for GGATATGT, the figure is 0.958; as for CGGCCGTGTT, 0.986; as for AAGTATAGAC, 1.03. For GACGGTCGCT, the switch fluorescence ratio amounted to 1.03. As for TCCTGGCTAC, the figure is 4.97; as for GCAGTAGAGG, 0.984; as for TGTCCAACAC, 1.02. With TTACTCAGAG, the switch fluorescence ratio came out at 0.981.

The record behind these values is the supplement of paper PMC10126150.
